Measured values taken from the supplement of paper PMC11125491.
± gives the standard deviation of the averaged measurements. Growth of baker's yeast expressing single-residue variants of Pneumocystis jirovecii dihydrofolate reductase in 8.8 or 44 µM methotrexate (about 75% and 90% inhibition of the wild type). Selection coefficient per generation; 0 = like wild type, above 0 = less sensitive, below 0 = more sensitive or loss of function. No active / inactive call per row; the paper calls resistant above 0.220 (8.8 µM) or 0.243 (44 µM) together with a significance test. At 44 µM about 15% of codons end with one read or none, so the lowest values are floors (replicate rank correlation 0.74; 0.94 at 8.8 µM).

B1: UniProt A0EPZ9; numbered along this chain (parent)
chain: MDWQKSLTLIVALTLSRGIGLKNDLPWKLKSDMMFFSRVTSGLLVTRSTGQMNVVLMGRKTWESLPAHSRPLKNRINVVISRQEVLDLGGGAYHARSLDDALALLSQIYDSTSKIQLNRVFVIGGGELCKAAMEHSRLNRIIATVIHNEVDCDVFFPIDFRSSQSCLPWRKQDHSVLEAWVGSKVPQGKINENGFIYEFEMWIRDI

Variants of: B1
Test: selection coefficient against synonymous wild-type codons (log2 per generation); higher = faster growth than wild type
Settings: with Saccharomyces cerevisiae carrying the variant on a plasmid
Method: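 Pooled growth of yeast carrying single-residue variants of P. jirovecii dihydrofolate reductase (own DFR1 gene intact), two passages at 30 °C, three cultures, sequenced before and after. Codons with under 15 starting reads are left out; codons of one change are averaged.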

Variant | selection coefficient against synonymous wild-type codons (log2) (methotrexate 8.8 µM) | selection coefficient against synonymous wild-type codons (log2) (methotrexate 44 µM)
MDWQKSLTLIVALTLSRGIGLKNDLPWKLKSDMMFFSRVTSGLLVTRSTGQMNVVLMGRKTWESLPAHSRPLKNRINVVISRQEVLDLGGGACHARSLDDALALLSQIYDSTSKIQLNRVFVIGGGELCKAAMEHSRLNRIIATVIHNEVDCDVFFPIDFRSSQSCLPWRKQDHSVLEAWVGSKVPQGKINENGFIYEFEMWIRDI [Y93C] | -0.546 ± 0.09 | -0.337 ± 0.069
MDWQKSLTLIVALTLSRGIGLKNDLPWKLKSDMMFFSRVTSGLLVTRSTGQMNVVLMGRKTWESLPAHSRPLKNRINVVISRQEVLDLGGGADHARSLDDALALLSQIYDSTSKIQLNRVFVIGGGELCKAAMEHSRLNRIIATVIHNEVDCDVFFPIDFRSSQSCLPWRKQDHSVLEAWVGSKVPQGKINENGFIYEFEMWIRDI [Y93D] | -0.681 ± 0.078 | -0.265 ± 0.044
MDWQKSLTLIVALTLSRGIGLKNDLPWKLKSDMMFFSRVTSGLLVTRSTGQMNVVLMGRKTWESLPAHSRPLKNRINVVISRQEVLDLGGGAEHARSLDDALALLSQIYDSTSKIQLNRVFVIGGGELCKAAMEHSRLNRIIATVIHNEVDCDVFFPIDFRSSQSCLPWRKQDHSVLEAWVGSKVPQGKINENGFIYEFEMWIRDI [Y93E] | -0.534 ± 0.15 | -0.36 ± 0.026
MDWQKSLTLIVALTLSRGIGLKNDLPWKLKSDMMFFSRVTSGLLVTRSTGQMNVVLMGRKTWESLPAHSRPLKNRINVVISRQEVLDLGGGAFHARSLDDALALLSQIYDSTSKIQLNRVFVIGGGELCKAAMEHSRLNRIIATVIHNEVDCDVFFPIDFRSSQSCLPWRKQDHSVLEAWVGSKVPQGKINENGFIYEFEMWIRDI [Y93F] | -0.14 ± 0.021 | -0.146 ± 0.2
MDWQKSLTLIVALTLSRGIGLKNDLPWKLKSDMMFFSRVTSGLLVTRSTGQMNVVLMGRKTWESLPAHSRPLKNRINVVISRQEVLDLGGGAGHARSLDDALALLSQIYDSTSKIQLNRVFVIGGGELCKAAMEHSRLNRIIATVIHNEVDCDVFFPIDFRSSQSCLPWRKQDHSVLEAWVGSKVPQGKINENGFIYEFEMWIRDI [Y93G] | -0.705 ± 0.11 | -0.237 ± 0.072
MDWQKSLTLIVALTLSRGIGLKNDLPWKLKSDMMFFSRVTSGLLVTRSTGQMNVVLMGRKTWESLPAHSRPLKNRINVVISRQEVLDLGGGAHHARSLDDALALLSQIYDSTSKIQLNRVFVIGGGELCKAAMEHSRLNRIIATVIHNEVDCDVFFPIDFRSSQSCLPWRKQDHSVLEAWVGSKVPQGKINENGFIYEFEMWIRDI [Y93H] | -0.0327 ± 0.072 | -0.0265 ± 0.086
MDWQKSLTLIVALTLSRGIGLKNDLPWKLKSDMMFFSRVTSGLLVTRSTGQMNVVLMGRKTWESLPAHSRPLKNRINVVISRQEVLDLGGGAIHARSLDDALALLSQIYDSTSKIQLNRVFVIGGGELCKAAMEHSRLNRIIATVIHNEVDCDVFFPIDFRSSQSCLPWRKQDHSVLEAWVGSKVPQGKINENGFIYEFEMWIRDI [Y93I] | -0.0526 ± 0.058 | -0.0702 ± 0.048
MDWQKSLTLIVALTLSRGIGLKNDLPWKLKSDMMFFSRVTSGLLVTRSTGQMNVVLMGRKTWESLPAHSRPLKNRINVVISRQEVLDLGGGAKHARSLDDALALLSQIYDSTSKIQLNRVFVIGGGELCKAAMEHSRLNRIIATVIHNEVDCDVFFPIDFRSSQSCLPWRKQDHSVLEAWVGSKVPQGKINENGFIYEFEMWIRDI [Y93K] | -0.453 ± 0.07 | -0.332 ± 0.047
MDWQKSLTLIVALTLSRGIGLKNDLPWKLKSDMMFFSRVTSGLLVTRSTGQMNVVLMGRKTWESLPAHSRPLKNRINVVISRQEVLDLGGGALHARSLDDALALLSQIYDSTSKIQLNRVFVIGGGELCKAAMEHSRLNRIIATVIHNEVDCDVFFPIDFRSSQSCLPWRKQDHSVLEAWVGSKVPQGKINENGFIYEFEMWIRDI [Y93L] | -0.0167 ± 0.038 | 0.00584 ± 0.058
MDWQKSLTLIVALTLSRGIGLKNDLPWKLKSDMMFFSRVTSGLLVTRSTGQMNVVLMGRKTWESLPAHSRPLKNRINVVISRQEVLDLGGGAMHARSLDDALALLSQIYDSTSKIQLNRVFVIGGGELCKAAMEHSRLNRIIATVIHNEVDCDVFFPIDFRSSQSCLPWRKQDHSVLEAWVGSKVPQGKINENGFIYEFEMWIRDI [Y93M] | -0.162 ± 0.048 | -0.248 ± 0.16
MDWQKSLTLIVALTLSRGIGLKNDLPWKLKSDMMFFSRVTSGLLVTRSTGQMNVVLMGRKTWESLPAHSRPLKNRINVVISRQEVLDLGGGANHARSLDDALALLSQIYDSTSKIQLNRVFVIGGGELCKAAMEHSRLNRIIATVIHNEVDCDVFFPIDFRSSQSCLPWRKQDHSVLEAWVGSKVPQGKINENGFIYEFEMWIRDI [Y93N] | -0.489 ± 0.039 | 0.0117 ± 0.039
MDWQKSLTLIVALTLSRGIGLKNDLPWKLKSDMMFFSRVTSGLLVTRSTGQMNVVLMGRKTWESLPAHSRPLKNRINVVISRQEVLDLGGGAPHARSLDDALALLSQIYDSTSKIQLNRVFVIGGGELCKAAMEHSRLNRIIATVIHNEVDCDVFFPIDFRSSQSCLPWRKQDHSVLEAWVGSKVPQGKINENGFIYEFEMWIRDI [Y93P] | -0.55 ± 0.056 | -0.0484 ± 0.057
MDWQKSLTLIVALTLSRGIGLKNDLPWKLKSDMMFFSRVTSGLLVTRSTGQMNVVLMGRKTWESLPAHSRPLKNRINVVISRQEVLDLGGGAQHARSLDDALALLSQIYDSTSKIQLNRVFVIGGGELCKAAMEHSRLNRIIATVIHNEVDCDVFFPIDFRSSQSCLPWRKQDHSVLEAWVGSKVPQGKINENGFIYEFEMWIRDI [Y93Q] | -0.424 ± 0.12 | -0.136 ± 0.056
MDWQKSLTLIVALTLSRGIGLKNDLPWKLKSDMMFFSRVTSGLLVTRSTGQMNVVLMGRKTWESLPAHSRPLKNRINVVISRQEVLDLGGGARHARSLDDALALLSQIYDSTSKIQLNRVFVIGGGELCKAAMEHSRLNRIIATVIHNEVDCDVFFPIDFRSSQSCLPWRKQDHSVLEAWVGSKVPQGKINENGFIYEFEMWIRDI [Y93R] | -0.457 ± 0.12 | -0.256 ± 0.074
MDWQKSLTLIVALTLSRGIGLKNDLPWKLKSDMMFFSRVTSGLLVTRSTGQMNVVLMGRKTWESLPAHSRPLKNRINVVISRQEVLDLGGGASHARSLDDALALLSQIYDSTSKIQLNRVFVIGGGELCKAAMEHSRLNRIIATVIHNEVDCDVFFPIDFRSSQSCLPWRKQDHSVLEAWVGSKVPQGKINENGFIYEFEMWIRDI [Y93S] | -0.587 ± 0.14 | -0.184 ± 0.34
